Measured values from PubChem BioAssay AID686971 (National Center for Advancing Translational Sciences (NCATS), 2013).
The campaign covered roughly 360,000 compounds. About 7,500 (2.1%) were called active. The inconclusive results got no clear call from the source; some entries with a clear call stand among them for comparison. The call rests on the fitted dose curve; in most records, active means well fitted cell-killing curve with a large enough effect; inconclusive means small, poorly fitted or top-dose-only effect, or effect the other way, or another doubt; inactive means no such curve, though single readings can be large or run the other way. No potency is given beside an inconclusive call; the fits are too rough.

Assay: qHTS for induction of synthetic lethality in tumor cells producing 2HG: qHTS for the HT-1080-IDH1KD cell line;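 on activity, negative = toxicity: 0% = DMSO wells and -100% = cell-free medium wells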
Conditions: HT-1080 IDH1 knockdown viability, ATP luminescence, 48 h; activity, negative = toxicity: at 46.1 µM (top of the series) unless noted
Outline: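 Using the IDH1-knockdown HT-1080 line run in the same batch and compound series as the NT line, viability after 48 h at 37 °C was determined by CellTiter-Glo luminescence and expressed as % activity.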
Potency means the concentration at half of the fitted maximal effect; tags describe the fitted curve by direction and shape.

Row | Compound | Potency | activity, negative = toxicity
1 | Cc1cc(C(=O)C(C)OC(=O)C2=NNC(=O)CC2)c(C)n1-c1ccc(OC(F)F)cc1 (centres undefined) | inactive | 
2 | COc1ccc(/C=C/c2ccccc2)cc1[C@H]1[C@@H]2C=CCC[C@@]2(C)C(=O)N1Cc1ccccc1 | inconclusive [cytotoxic, single point] | 
3 | CCc1noc(C)c1C(=O)NNC(=O)COc1cc(C)ccc1C | inactive | 
4 | O=S(=O)(c1ccc(NC(=S)N2CCN(c3ccc(O)cc3)CC2)cc1)N1CCOCC1 | inconclusive [cytotoxic, partial curve] | 
5 | CC(C)NC(=O)COc1nncc2ccccc12 | inactive | 
6 | O=C(CN1CCC(n2nnc3cc(F)ccc32)CC1)N1CCc2ccccc2C1 | inconclusive [cytotoxic, partial curve] | 
7 | O=C(Nc1ccn(Cc2cccc3ccccc23)n1)c1cccnc1 | inconclusive [cytotoxic, partial curve] | 
8 | COc1cccc(/C=N/Nc2cc(C)nc(-c3ccccc3O)n2)c1O | active: 6.51 µM | 
9 | Cc1cc(=O)oc(C)c1C(=O)NCCCN1CCN(c2ccccc2F)CC1 | inconclusive [cytotoxic, single point] | 
10 | COC(=O)[C@H](CC(C)C)NC(=O)/C=C/[C@H]1O[C@@H](n2ccc(=O)[nH]c2=O)[C@H](O)[C@@H]1O | inconclusive [rising, partial curve, poor fit] | 
11 | COc1ccc(NC(=O)CSc2nc3c(c(=O)n2-c2ccccc2OC)SCC3)cc1 | inactive | 
12 | O=C(NCc1ccccc1)Nc1cccn(Cc2c(F)cccc2Cl)c1=O | inconclusive [cytotoxic, single point] | 
13 | CCN(c1cccc(C)c1)S(=O)(=O)c1ccc2c3c(cccc13)C(=O)N2 | inconclusive [cytotoxic, partial curve] | 
14 | C[C@@H]1CCCCO[C@H](CN(C)Cc2ccc(C(F)(F)F)cc2)[C@H](C)CN([C@@H](C)CO)C(=O)c2cc(NC(=O)Cc3ccccc3)ccc2O1 | active: 18.4 µM | 
15 | CN(C)c1ccc(NC(=O)COC(=O)c2ccc3c(c2)OCO3)cc1 | inconclusive [rising, single point] | 
16 | COc1cccc(/C=N/NC(=O)c2cc3c(OC)c(OC)ccc3[nH]2)c1OC | active: 6.51 µM | 
17 | O=C(CCN1C(=O)/C(=C/c2cccs2)SC1=S)N1CCCCC1 | inconclusive [cytotoxic, full curve] | 
18 | O=c1[nH]cc(N(CCO)CCO)c(=O)[nH]1 | inconclusive [rising, partial curve, poor fit] | 
19 | Cc1ccccc1OCC(=O)N/N=C/c1cccc2cccnc12 | inconclusive [cytotoxic, single point] | 
20 | Nc1nc(Nc2cccc(Cl)c2)nc(NCc2ccco2)c1[N+](=O)[O-] | active: 16.4 µM | 
21 | CC(CCc1ccccc1)NC(=O)CCCn1ncn2c(cc3occc32)c1=O (centres undefined) | inactive | 
22 | COC(=O)c1c(C)cccc1C1CN=NC12Cc1ccccc1C2=O (centres undefined) | inactive | 

Row | Compound | Potency | activity, negative = toxicity
23 | O=C(NCc1cccc(F)c1)c1noc2c1CCCC2 | inconclusive [cytotoxic, single point] | 
24 | COc1ccc(C(=O)N2[C@@H](C(C)C)COc3cc(Br)ccc3S2(=O)=O)cc1 | inconclusive [cytotoxic, partial curve] | 
25 | Cc1ccc(-n2cc(CN3CCN(c4ccccn4)CC3)c(-c3ccc(F)cc3)n2)cc1 | inconclusive [rising, single point] | 
26 | Cc1ccc(CN2CCN(/N=C\C(Br)=C\c3ccccc3)CC2)cc1 | inconclusive [cytotoxic, single point] | 
27 | CCOC(=O)C1CCCN(c2ncnc3c2cnn3-c2ccc(Cl)cc2)C1 (centres undefined) | inconclusive [cytotoxic, single point] | 
28 | CC(C)C(=O)N1CCN(c2nc(-c3ccccc3)c3c(c2C#N)CCCC3)CC1 | inconclusive [cytotoxic, single point] | 
29 | COC(=O)C(C(=O)Nc1ccc(OC)cc1)C1CCCCCC1 (centres undefined) | inconclusive [cytotoxic, single point] | 
30 | NC(=S)N/N=C1\CC(c2ccc3c(c2)OCCCO3)Oc2ccc(F)cc21 (centres undefined) | inconclusive [cytotoxic, single point] | 
31 | O=C(c1cccc(Cl)c1)N1CCN(Cc2ccc3c(c2)OCO3)CC1 | inactive | 
32 | Cc1cc(N2CCCC(C(=O)Nc3ccc4c(c3)CCC4)C2)n2ncnc2n1 (centres undefined) | inconclusive [cytotoxic, partial curve] | 
33 | Fc1ccc(N/N=C/c2cccnc2)c(F)c1 | active: 14.6 µM | 
34 | COc1ccc(C(=O)/C=C/c2cn(CC(O)CN3CCN(C)CC3)c3ccccc23)cc1OC (centres undefined) | active: 14.6 µM | 
35 | O=C(CCN1C(=O)C2CC=C(Cl)CC2C1=O)NC1CCCCC1 (centres undefined) |  | inconclusive: 36.4%
36 | O=C(Nc1ccc(-c2cn3ccsc3n2)cc1)C1COc2ccccc2O1 (centres undefined) | inconclusive [cytotoxic, single point] | 
37 | CC(O)(c1ccccc1)c1nc(-c2cccc(C(F)(F)F)c2)cs1 (centres undefined) | inconclusive [cytotoxic, partial curve] | 
38 | CCOC(=O)c1[nH]cnc1N=Nc1c(O)ccc2ccccc12 | active: 6.51 µM | 
39 | CCc1ccc(OCC(=O)NNC(=O)c2cnccn2)c(Br)c1 | inconclusive [cytotoxic, partial curve] | 
40 | O=C(c1ccc(F)cc1)N1CCCC(c2nc(-c3ccncc3)no2)C1 (centres undefined) | inactive | 
41 | Cc1onc(-c2ccccc2Cl)c1C(=O)O/N=C(\N)c1cccc([N+](=O)[O-])c1 | inconclusive [cytotoxic, partial curve] | 
42 | CCCN1C(=O)C(O)(C2COC(C)(C)CC2=O)c2ccccc21 (centres undefined) | inconclusive [rising, single point] | 
43 | O=C1CC(c2cccc([N+](=O)[O-])c2)c2c(ccc3ccccc23)N1 (centres undefined) | active: 11.6 µM | 
44 | O=C(Nc1ccc2c(c1)OCCO2)c1ccco1 | inconclusive [cytotoxic, partial curve] | 
